This is one part of the list.
The sequences below were run on PfAP2-HC AP2 domain (GST-tagged) (assay: gcPBM binding intensity (ln(normalized median fluorescence intensity)); higher = stronger DNA binding).
Summary of the method: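 An Agilent 4 × 180k array of primer-extended double-stranded 36-bp intergenic genomic probes, with negative controls, was incubated for 1 h with GST-tagged P. falciparum DNA-binding domains expressed in E. coli. Alexa488 anti-GST antibody detected bound protein, scanned at 488 nm. Binding intensity is the highest Masliner-normalised natural-log median intensity across replicate spots of either probe orientation.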

Sequence | gcPBM binding intensity (ln)
ATAAATTTTTAAACAGCACACATAAATATAATATAT [CACACA_site8691] | 9.78
ATGATTTCACAAGACACACACATACAAATTTATATA [CACACA_site3909] | 10.2
TATTTTATATTTTATGCACACTTATAAGAAATATGT [CACACA_site5647] | 9.68
TTAATATATTATCTGGTGCATAAACACGTTATACCT | 9.67
CAGTATTACATGAGGACACACACAAAAAAAATATAT [CACACA_site8156] | 10.3
CAAGCTTTTTCCTTTACACACATTAGTTATTTATAT [CACACA_site6781] | 10.1
ATAGGTTCCCAAAATGCACACCAATGAAATTATTTA [CACACA_site8081] | 9.61
ATATTATTTTAAAGTACACACATATATTAAGATATA [CACACA_site5306] | 9.68
CTGTAAAAAATATAAACACACATAGAGATATATAAA [CACACA_site6292] | 9.84
TTTAATGTTACTCCTTGTACACAAAATAGTGTTATA [XGTACX_site8416] | 9.72
TAAGTATATTTTATATGTACTTATATATTTAATTTT [XGTACX_site4615] | 9.38
TATTAATATGGTAATACACACTAATATACTTTTGTT [CACACA_site6860] | 9.9
ATATATATATATATATGTACGTATTCATAAACAACA [XGTACX_site4282] | 9.79
CAAAATGTTTCTCATTGTACACAAAATAAATGTCCT [XGTACX_site6798] | 9.49
TAATGAATTTAAATTTTAAAATTAATAAAAAAAATA [TGCATGCA_negctrl_site15] | 9.42
ATACATATGTATATTTGTACATATTAGACAATCTTA [XGTACX_site6706] | 9.37
ATTAGTAAATTTATATGTACACATTGTTATTTTATA [XGTACX_site1177] | 9.75
ACATTTACAAGGAAAGTGCATATAAGAAAAATAAAA [GTGCAC_site9587] | 9.66
ATTCTATTATAATACACACCCAAATATTAAAAAGAT [CACACA_site2960] | 10.2
CCACATGATATGATTACACACATATATATATTTACA [CACACA_site164] | 9.88
TATTATATATATATATGTACATATATATGCTAAAAA [XGTACX_site5297] | 9.66
GATGTTGCAAAATTCTGTACATATAAATGTATACAT [XGTACX_site5009] | 9.64

Sequence | gcPBM binding intensity (ln)
TATTTATTAAAACACACACACACACCCACAAAATAA [CACACA_site241] | 10.5
ATAATATATATATAAACACACAAAAAAAATTATATA [CACACA_site1534] | 9.86
TTATGTATTCATTTTTTTTAAGCACCCCAAAATGAT [CACACA_negctrl_site1344] | 9.39
ATTTTTTTTTATGATACACACTTGGATAATTAAAAC [CACACA_site4473] | 9.55
TTATTCATTTTTATTTGTACATAATTATATGAAATT [XGTACX_site6389] | 9.58
TTTTATATTTTATGCACACTTATAAGAAATATGTAC [CACACA_site3040] | 9.65
GGAAAAAAAAATAAATGTACGAATTAACATATCAAA [XGTACX_site5653] | 9.54
ACACAAGCACACAAATGTACATATATATATATATAT [XGTACX_site5146] | 9.95
TTATTTTCCCTTTGTGCATGCAGTTTACTTTTTGTG [TGCATGCA_site993] | 9.79
ACTTGTAAGAGACACACACACACACGGATATAAATA [CACACA_site6517] | 10.7
ACACATATATTAAATGTGCACTGAAATATGCATATA [GTGCAC_site9936] | 9.72
CAAAATAAAAATAACACACACATTTATTTATATACA [CACACA_site6679] | 10.1
ATATATGTATATTTATGTACGTATTCCTGTATAGTC [XGTACX_site5763] | 9.93
TGTGTAGGGGATATTCTACTTTAAAAATAAATATAT [CACACA_negctrl_site207] | 9.67
TATAAAAGATTGGAATGTACATAAGAAAAAAATATA [XGTACX_site5028] | 9.74
AATCATATTAGTATGGTGCAACATATATAAATATAT | 9.71
GGCCCAACTTCTTCTGACGAAAACGTAAATTGTGTG [XGTACX_negctrl_site533] | 9.71
TTCAAGATTTATTATACACACATATTAATATTTATA [CACACA_site6413] | 9.79
GTAACATTTTAAATATATACATATAATGTATTTATA [GTGCAC_negctrl_site344] | 9.63
ATTAAACCGTGGGAGCACACACACACACACACACAT [TGCATGCA_negctrl_site72] | 10.9
TGTTGTATCAATTTTTGTACATAACACATATGTATA [XGTACX_site3666] | 9.75
ATATATATATTATGGGGTACAAACATCAAAAGATTT [XGTACX_site3944] | 9.65

Sequence | gcPBM binding intensity (ln)
ATTAATTAAAAGGGAACACATAGAAATTATAAAACA [GTGCAC_negctrl_site420] | 9.71
AATGGTATAATCAATACACACATAATATATATATTG [CACACA_site1658] | 9.8
TTAAGATATGTATATCGTACATGACATTAAAAATTT [XGTACX_site3352] | 9.31
TAAAAAAAATACAAAAGTACACAAAATTATACGTTA [XGTACX_site4656] | 9.75
AAATAAATACACATATGTACATATTTTATTTTATTT [XGTACX_site2357] | 9.71
TTGTTAAAAGTATCCATTCTTTATTACTTTTGTTTA [XGTACX_negctrl_site532] | 9.61
TGTACCTTATTAATATATTTAACTCGCCTTATATAC [XGTACX_negctrl_site289] | 9.82
ATTGGGTACAAATACACACACATATATATATTAATA [CACACA_site2376] | 10.3
TCGTAAACATATTGAAAAATATAAAAAGGGGTAATA [CACACA_negctrl_site619] | 9.66
CAAATATAAATATATACATGCATCTATCTATATAAA [TGCATGCA_site369] | 9.53
AATCAAAAATCAAACGCATGTAGTATAATAGATAAG [TGCATGCA_site753] | 9.86
AAATTGTAGCACCAAGCATGCTAAAAGGACATATGA [TGCATGCA_site717] | 9.88
AAATTATATCATTTATTTTTTTATATTTTTTATATT [CACACA_negctrl_site685] | 9.63
AATTTCCTTTTTTAAAGTACACAAAAGTTCACTTTG [XGTACX_site4460] | 9.45
TATAATTTATTAAGGGGTACATATATTTCATGATAA [XGTACX_site5141] | 9.46
AAGATTAAAAATTGCACACAAAAATATATTTTCTAT [CACACA_site1305] | 9.93
TAGTATAAAATTATGTGTACACAAATATAACTTTTC [XGTACX_site5971] | 9.79
AAAAAAAAAAAAAGGTGTACAAGTATAATTACATAA [XGTACX_site534] | 9.77
TATTTATTGTGATACTTTTATTGTTTAATGATTAAA [CACACA_negctrl_site495] | 9.54
AAAAAAAAAAATATCACACACACATAAATATAAACC [CACACA_site2278] | 10.4
AAATTATATCAATGTTGTACATATTATTTTTTTCTC [XGTACX_site5948] | 9.63
TTTTTTCAATTTTTTTTAAATAAACCACAAAAAAAA [CACACA_negctrl_site1701] | 9.05

Sequence | gcPBM binding intensity (ln)
TAATGTAAAATTTAGAGTACATAAAAAATTGGATGA [XGTACX_site7225] | 9.67
AAATAAAAAAAGAAACGTACATATATTGGTTTCGTC [XGTACX_site3510] | 9.71
AAACTATAATATATTACACACATATATTTTATAAGT [CACACA_site6460] | 9.85
GGAATAGTAATATATACACACAAATACAGATATATA [CACACA_site4213] | 10.3
AATTGAATTTTAAAAGAAAAAAAAAAAAAAAAATAA [XGTACX_negctrl_site195] | 9.33
TGGAGGTCAGTTCACAGTACCCAGAAACTCTACGGA [XGTACX_site4927] | 9.3
CATACAGATATATATACACACATACAGATAAATACA [CACACA_site4592] | 9.95
AACATACATAAACACACACACACACCCACAGAGACA [CACACA_site4430] | 11
CTTATAAAAAAAAAAACATGCAACAGTAAAGAACAA [TGCATGCA_site892] | 9.7
AAAAAAATAAGTATTGAACAATTAAGGAAAAACATG [GTGCAC_negctrl_site464] | 9.76
GGTAATTTTTTTTAAATACACACTGAAATGTGAATT [CACACA_site564] | 9.52
CTTGTCATTGGGCACACACACATGTATAGGTTATTA [CACACA_site3058] | 10.1
GAGTAAACATATATATGTACATAAAGTTAACATTGC [XGTACX_site2225] | 9.99
ATTTTTTTTCATATAACACACACACTAATATAATGT [CACACA_site9226] | 10.4
TGAACACCCACAAATACACACAAAAAAAATAAATAA [CACACA_site248] | 10.6
ATATATTATATAATATGTACATAATAAAATTTAAAT [XGTACX_site1900] | 9.67
ATCTAAATAATATATATATATAATATTAATAATATA [CACACA_negctrl_site1620] | 9.49
TTTTTATTTATATATATATATATATATTATATATAA [CACACA_negctrl_site1654] | 9.52
ACAAGATCTAGATACACACACATATCTCTCAATCTA [CACACA_site6453] | 9.93
AATAATTGAAAAACACAAAAATGATTTTCCATAAAT [CACACA_negctrl_site1555] | 9.55
GGGACAGGACGAAAAAATAAATAAATAAATAAAAAA [CACACA_negctrl_site155] | 9.4
GTAAAAAAATAGCACACACACAAAAACACGCACAAA [CACACA_site6723] | 11.4
